The results in this text go back to the RNAGym collection of RNA variant scans (doi:10.7554/elife.90254).

Sequences and labels used below:
B1: OR4K15 (parent)
chain: GUUAACGGUCAUAGGCCAUGGAAACUAGGAGCACCAUUUCGCUGCCAGUGAAGAAAUGAACAAAGAAAAUCUGGGCCAGGCAGGCAUCAAAAGAAAUAGUCUUGCGCUCAACCAGAAAGUCUGUAAUCAUUUUAAGGGUA

The source gives no read counts; variants with many changes may rest on few reads.

In this series the parent is B1. The series is described as follows: self-cleavage, relative activity (ratio to wild type); higher = more cleavage; in vitro, sequencing; the parent is a self-cleaving ribozyme.
In the case of U9C A27U U57A, the self-cleavage came to 1.67.
Consider U9C C10U U108C A117U, for which the self-cleavage was determined as 0.01.
In the case of G7A U102C C105U it was 0.8.
In the case of U9A A18U U70A A116G A117G it was 0.05; in that of U9C A13G U19C A62G C88U, 1.3.
With U9C A51G A95G U97A, the self-cleavage is 1.5.
Turning to U9A A22G A111G U120A U122C U139C, the self-cleavage turned out to be 0.01.
On to U9C A30G A92G U100C, for which the self-cleavage turned out to be 1.53.
Consider U9C A30U A69G A91U G99A, for which the self-cleavage is 0.46.
In the case of U9A A33U U100C U103C it was 1.39; in that of U9C A36G U38C U49C C71U U130G, 0.24.
As to U9C A24G A92U U127C U133A, the self-cleavage amounted to 0.98.
In the case of U9A A24G C40U G58A A67U it was 1.38; in that of G7U C34U C40U A67C U124C, 1.71; in that of G8A A22G U37C G41U A69G A95G, 1.22.
Regarding G8A A86G A125U U127C, the self-cleavage was 0.17.
In the case of U9C A36G A66U A67G U70C A110G U124C it was 0.06; in that of U9C A22U A23G A94G A126U U131C, 0.84.
The figure for U9C A66G A118U is 1.37.
In the case of U9A U108C U120C it was 0; in that of U9C A36U A96G U130C, 0.51; in that of G7U A118U A126G, 0.24.
For U9C G28U A36G A94U, the self-cleavage was determined as 1.61.
The figure for G8A C25U A56G A96G is 2.22; for U9C U57A A89G it is 1.3.
In the case of U9C U57C A78U A86G it was 0.18.
As for U9C U39C A47G A117U, the self-cleavage stood at 1.19.
The figure for U9A C32A A55G A68C A90G A95G A110G G115A is 0.01; for U9C A69G U87C it is 0.69; for U9C A51G U131C it is 1.19.
In the case of U9C U12C A59U A92G A94G it was 1.47.
As for U9C A55U G79A, the self-cleavage came to 0.21.
The figure for U9C A54G A55U A78G is 0.28; for G8A A52G U132A it is 0.83.
Turning to U9C A86U A90G A118G, the self-cleavage is 0.99.
In the case of U9C A24G A90U it was 1.06.
The figure for U9C U39C A47G is 1.34; for U9C A59G A117G it is 0.98; for U9A A56G A69G A82G it is 0.43.
U9C G53A A111U: the self-cleavage came out at 0.06.
The figure for G8A A62G A116G is 0.91; for U9C A54G A66G U127A it is 2.09; for G7U A22G U37C A54G U108C U132C it is 0.02.
As to G7C U37C U132C, the self-cleavage was determined as 2.21.
G7A U130A U131C: the self-cleavage was found to be 1.14.
For the variant U9C U37C A94G U132C, the self-cleavage was found to be 1.69.
As to U9C A64G U70C, the self-cleavage stood at 0.66.
U9A A30G U49C A55G A129G: the self-cleavage was determined as 0.8.
Take G8A U43A A54G A64G G80A A135G: the self-cleavage stood at 0.4.
For the variant U9C C32A C85G A96G A117G U132C, the self-cleavage worked out at 0.91.
In the case of U9C A52G A67G A68G U130A it was 0.97; in that of U9A A11U U43A A135C, 0.83; in that of G7U A36G U49A A64G U127C, 0.22.
The figure for U9A A18G U100C U108C U139C is 0.01.
For the variant U9C U39A G80A C113G A129G, the self-cleavage was determined as 0.
As for U9A A23G U38A A95G, the self-cleavage was found to be 1.34.
In the case of G8U A60U U72A, the self-cleavage is 0.46.
U9C A92G U102C: the self-cleavage stood at 2.84.
The figure for U9C A60G U70C is 1.32; for U9C A23G A91G it is 1.18.
On to U9C A30G U122C, for which the self-cleavage turned out to be 1.31.
Turning to G8A A64G A78G U130C U132C, the self-cleavage came to 0.34.
In the case of U9A A90U A118G it was 0.94.
For the variant U9C G29A A51G A98G, the self-cleavage was 0.49.
U9C A55G A59G G115U: the self-cleavage is 0.19.
As to U9C A68G A116C, the self-cleavage came to 0.08.
U9C A24G A51G: the self-cleavage worked out at 1.68.
In the case of U9A A47G U108C it was 0.01.
Turning to U9C U12C U49C A118G U130C A135U, the self-cleavage was 0.74.
The figure for U9A C109A U122C is 0.27; for U9C G14A A47U G79U A89G it is 0.03; for U9C A54U U131C it is 0.81.
For U9C A92G U103C, the self-cleavage stood at 1.13.
In the case of U9C G50U A52G U127A, the self-cleavage was 2.01.
Regarding U9C A68G U131C, the self-cleavage came to 1.35.
The figure for U9C A33G A60U is 1.29; for U9A U49C C76U U102C it is 0.05.
The figure for U9C A114U A116G U130C is 0.01; for U9C A116G A129G it is 0.59.
In the case of G8A U37C G74C A78C C128U it was 0.16; in that of G8A U19A U87A, 2.97.
With U9C A59G A67G A95G, the self-cleavage was 2.55.
In the case of U9C A11G A96G it was 0.7.
